Reference: paper PMC10561363
Results are given in words; binding and its absence hold for the method and conditions named. In cells and extracts the contact can be indirect. Some binding calls cover weakened binding; strength is not graded here.

The chains behind the UniProt entries cited, without tags or fusion partners.
UniProt P30531: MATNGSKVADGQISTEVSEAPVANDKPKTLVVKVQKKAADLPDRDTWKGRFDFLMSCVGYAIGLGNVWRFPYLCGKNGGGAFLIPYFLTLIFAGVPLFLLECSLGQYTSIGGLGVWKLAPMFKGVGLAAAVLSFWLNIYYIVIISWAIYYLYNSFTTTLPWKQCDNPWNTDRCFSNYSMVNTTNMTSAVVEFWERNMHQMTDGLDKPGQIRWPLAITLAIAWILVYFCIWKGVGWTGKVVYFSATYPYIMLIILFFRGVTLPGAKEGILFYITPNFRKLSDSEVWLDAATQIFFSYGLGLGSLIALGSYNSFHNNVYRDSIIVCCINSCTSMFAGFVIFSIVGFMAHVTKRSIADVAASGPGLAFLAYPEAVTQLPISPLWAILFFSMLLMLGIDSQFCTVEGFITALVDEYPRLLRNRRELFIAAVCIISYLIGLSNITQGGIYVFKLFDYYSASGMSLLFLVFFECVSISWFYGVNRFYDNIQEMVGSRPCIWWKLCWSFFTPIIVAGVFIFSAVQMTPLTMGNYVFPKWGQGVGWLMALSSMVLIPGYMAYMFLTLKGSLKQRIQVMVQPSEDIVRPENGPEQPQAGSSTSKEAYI
UniProt Q01959: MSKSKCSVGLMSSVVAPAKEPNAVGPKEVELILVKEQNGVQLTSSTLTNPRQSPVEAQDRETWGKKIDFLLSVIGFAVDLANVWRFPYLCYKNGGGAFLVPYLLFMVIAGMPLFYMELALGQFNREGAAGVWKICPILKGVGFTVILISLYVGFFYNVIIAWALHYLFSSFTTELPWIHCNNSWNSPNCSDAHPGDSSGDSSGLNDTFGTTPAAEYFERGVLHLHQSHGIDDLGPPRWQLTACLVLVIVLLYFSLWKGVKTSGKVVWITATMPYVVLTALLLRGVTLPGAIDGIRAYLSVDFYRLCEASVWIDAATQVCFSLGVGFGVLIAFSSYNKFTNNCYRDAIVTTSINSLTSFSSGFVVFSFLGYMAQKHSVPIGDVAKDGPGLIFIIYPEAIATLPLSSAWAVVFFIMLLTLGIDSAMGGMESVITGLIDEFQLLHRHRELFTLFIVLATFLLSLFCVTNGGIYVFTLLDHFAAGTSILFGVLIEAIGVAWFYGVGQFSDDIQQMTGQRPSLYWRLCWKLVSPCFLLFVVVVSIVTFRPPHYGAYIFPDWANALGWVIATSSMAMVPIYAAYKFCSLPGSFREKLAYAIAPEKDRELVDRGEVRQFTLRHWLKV
UniProt P23975: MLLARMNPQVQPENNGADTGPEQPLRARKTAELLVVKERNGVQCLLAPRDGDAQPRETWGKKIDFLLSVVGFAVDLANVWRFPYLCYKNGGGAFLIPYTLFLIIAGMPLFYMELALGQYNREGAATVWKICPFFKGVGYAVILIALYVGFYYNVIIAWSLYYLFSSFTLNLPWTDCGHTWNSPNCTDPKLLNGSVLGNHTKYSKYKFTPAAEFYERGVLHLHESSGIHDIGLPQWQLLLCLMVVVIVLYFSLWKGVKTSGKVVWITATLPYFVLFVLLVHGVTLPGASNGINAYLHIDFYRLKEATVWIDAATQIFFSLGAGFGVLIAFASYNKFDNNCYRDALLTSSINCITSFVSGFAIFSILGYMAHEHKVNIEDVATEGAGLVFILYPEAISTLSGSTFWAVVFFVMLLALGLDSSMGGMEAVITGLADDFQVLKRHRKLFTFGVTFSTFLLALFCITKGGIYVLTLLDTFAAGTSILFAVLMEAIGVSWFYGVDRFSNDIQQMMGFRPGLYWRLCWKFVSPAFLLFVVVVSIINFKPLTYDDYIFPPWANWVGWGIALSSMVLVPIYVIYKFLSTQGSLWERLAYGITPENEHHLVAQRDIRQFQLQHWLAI
UniProt O60566: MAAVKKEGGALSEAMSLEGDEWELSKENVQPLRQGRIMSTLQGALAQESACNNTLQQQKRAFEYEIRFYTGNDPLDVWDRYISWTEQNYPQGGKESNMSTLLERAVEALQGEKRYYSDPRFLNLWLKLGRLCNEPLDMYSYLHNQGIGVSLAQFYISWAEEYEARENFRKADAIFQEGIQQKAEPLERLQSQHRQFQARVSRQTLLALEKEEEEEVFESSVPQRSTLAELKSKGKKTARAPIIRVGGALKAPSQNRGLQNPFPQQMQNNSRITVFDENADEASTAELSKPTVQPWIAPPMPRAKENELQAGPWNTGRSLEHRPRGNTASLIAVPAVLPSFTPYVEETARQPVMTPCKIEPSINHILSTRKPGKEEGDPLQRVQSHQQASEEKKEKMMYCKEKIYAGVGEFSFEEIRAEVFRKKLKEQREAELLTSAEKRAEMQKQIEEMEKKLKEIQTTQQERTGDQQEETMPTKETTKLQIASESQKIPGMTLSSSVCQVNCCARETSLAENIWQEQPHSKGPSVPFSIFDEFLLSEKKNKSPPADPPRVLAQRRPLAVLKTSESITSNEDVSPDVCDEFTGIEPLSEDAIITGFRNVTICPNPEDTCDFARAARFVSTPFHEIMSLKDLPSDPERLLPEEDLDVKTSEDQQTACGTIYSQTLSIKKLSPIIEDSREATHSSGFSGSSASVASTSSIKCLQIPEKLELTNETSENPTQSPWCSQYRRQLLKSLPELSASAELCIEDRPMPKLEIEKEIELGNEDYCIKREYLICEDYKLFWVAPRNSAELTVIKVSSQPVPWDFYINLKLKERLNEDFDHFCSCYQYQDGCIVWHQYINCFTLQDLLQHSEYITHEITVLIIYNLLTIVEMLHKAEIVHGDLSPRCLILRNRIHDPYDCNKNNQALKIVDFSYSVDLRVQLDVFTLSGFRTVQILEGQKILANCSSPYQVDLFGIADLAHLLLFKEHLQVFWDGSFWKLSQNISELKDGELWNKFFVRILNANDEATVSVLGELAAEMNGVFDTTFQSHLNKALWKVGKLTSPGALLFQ
UniProt Q13257: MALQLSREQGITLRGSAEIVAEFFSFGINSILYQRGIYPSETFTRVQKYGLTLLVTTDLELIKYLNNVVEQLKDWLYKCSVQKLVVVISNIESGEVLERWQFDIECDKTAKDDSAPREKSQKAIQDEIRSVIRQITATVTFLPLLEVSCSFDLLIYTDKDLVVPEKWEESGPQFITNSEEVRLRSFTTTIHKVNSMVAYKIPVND
UniProt P04406: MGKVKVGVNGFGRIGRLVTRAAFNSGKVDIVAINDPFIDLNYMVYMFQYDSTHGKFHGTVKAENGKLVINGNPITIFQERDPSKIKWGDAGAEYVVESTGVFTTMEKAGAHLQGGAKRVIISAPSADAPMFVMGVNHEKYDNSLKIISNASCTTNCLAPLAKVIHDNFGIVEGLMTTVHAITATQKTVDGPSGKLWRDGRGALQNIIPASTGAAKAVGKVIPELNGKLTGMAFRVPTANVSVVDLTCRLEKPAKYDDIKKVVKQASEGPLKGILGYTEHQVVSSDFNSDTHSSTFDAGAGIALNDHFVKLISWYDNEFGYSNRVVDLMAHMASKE
UniProt P63010: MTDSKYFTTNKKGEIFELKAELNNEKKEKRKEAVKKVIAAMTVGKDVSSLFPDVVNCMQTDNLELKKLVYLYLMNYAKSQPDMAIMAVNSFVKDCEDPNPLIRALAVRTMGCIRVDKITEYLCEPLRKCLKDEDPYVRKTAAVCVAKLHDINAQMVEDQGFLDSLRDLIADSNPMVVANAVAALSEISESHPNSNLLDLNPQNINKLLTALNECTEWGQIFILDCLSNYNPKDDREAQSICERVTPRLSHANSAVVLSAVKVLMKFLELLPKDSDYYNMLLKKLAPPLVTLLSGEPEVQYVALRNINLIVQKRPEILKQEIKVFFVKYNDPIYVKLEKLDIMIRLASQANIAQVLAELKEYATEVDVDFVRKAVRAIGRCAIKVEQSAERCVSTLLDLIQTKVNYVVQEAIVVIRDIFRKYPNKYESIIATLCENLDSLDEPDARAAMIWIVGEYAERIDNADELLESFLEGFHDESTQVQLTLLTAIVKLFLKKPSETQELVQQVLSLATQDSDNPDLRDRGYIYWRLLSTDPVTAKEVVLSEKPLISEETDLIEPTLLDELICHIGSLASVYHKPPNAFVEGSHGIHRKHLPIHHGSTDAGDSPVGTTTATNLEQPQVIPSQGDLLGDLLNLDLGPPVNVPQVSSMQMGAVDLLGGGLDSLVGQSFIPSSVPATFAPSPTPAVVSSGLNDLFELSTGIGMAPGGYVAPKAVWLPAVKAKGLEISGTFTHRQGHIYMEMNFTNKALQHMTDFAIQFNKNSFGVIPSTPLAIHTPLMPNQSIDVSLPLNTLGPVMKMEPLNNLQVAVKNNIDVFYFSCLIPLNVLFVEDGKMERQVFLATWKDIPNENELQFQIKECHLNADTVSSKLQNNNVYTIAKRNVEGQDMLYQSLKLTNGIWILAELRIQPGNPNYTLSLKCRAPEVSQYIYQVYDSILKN

Legend:
Assay in all cases: co-IP; GFP-Trap agarose on lysates of HEK-293 cells stably expressing YFP-tagged transporters, 90 min at 4°C, co-IP lysis buffer; immunoblot; for YFP-hSERT also after control or MAD2 siRNA (BubR1 substantially reduced, β2-adaptin down by about 50%, p31^comet not significantly changed, HSP70 unaffected)
[1] = target: YFP-tagged human GABA transporter 1 (human) (UniProt P30531)
[2] = target: N-terminally YFP-tagged human dopamine transporter (human) (UniProt Q01959)
[3] = target: N-terminally YFP-tagged human norepinephrine transporter (human) (UniProt P23975)

binding [1] | binding [2] | binding [3] | Substance
binds | binds | binds | BubR1, endogenous (from UniProt O60566 1-1050)
binds | binds | binds | MAD2 (mitotic arrest deficient-2), endogenous (from UniProt Q13257 1-205)
no binding | no binding | no binding | glyceraldehyde 3-phosphate dehydrogenase (GAPDH), endogenous (from UniProt P04406 1-335)
binds | binds | – | β2-adaptin (subunit of adaptor protein-2, AP2), endogenous (from UniProt P63010 1-937)
